The values below come from publication PMC6175577, “BRCT domains of the DNA damage checkpoint proteins TOPBP1/Rad4 display distinct specificities for phosphopeptide ligands” (eLife, 2018).

The chains behind the UniProt entries cited, without tags or fusion partners. Residues count along the entry.
UniProt Q92547, residues 1-360: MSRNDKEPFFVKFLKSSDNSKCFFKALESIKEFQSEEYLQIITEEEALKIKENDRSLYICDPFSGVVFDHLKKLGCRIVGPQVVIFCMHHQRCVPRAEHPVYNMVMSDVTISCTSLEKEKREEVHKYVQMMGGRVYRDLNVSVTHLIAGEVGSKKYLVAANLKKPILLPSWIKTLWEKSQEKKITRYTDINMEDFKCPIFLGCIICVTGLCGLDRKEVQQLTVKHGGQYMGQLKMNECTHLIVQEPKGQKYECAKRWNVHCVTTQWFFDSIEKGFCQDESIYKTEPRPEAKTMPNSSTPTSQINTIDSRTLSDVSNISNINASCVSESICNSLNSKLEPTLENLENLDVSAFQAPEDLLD

Numbering of substitutions follows the chain as printed. No constants are given. Whether binding was seen depends on the method and setting. Binding seen in cells or lysates may run through a third protein. Some binding calls cover weakened binding; strength is not graded here.

Common to all, as to test: pull-down; biotinylated RAD9 peptides saturating streptavidin agarose; 35S-methionine-labelled TOPBP1 1-360 in vitro translated in rabbit reticulocyte lysate; 20 mM HEPES 8.0, 450 mM NaCl, 0.01% Triton, 5% glycerol, 5 mM MgCl2, 5 mM 2-mercaptoethanol; 2 hr at 4°C; SDS PAGE and autoradiography; semi-quantitative; only the target purified
Assay [1] has as its target T1, Biotinylated HsRAD9 pS387 peptide F-4 (human).
T1 sequence (peptide, phosphoserine at 387; biotin (position not stated)): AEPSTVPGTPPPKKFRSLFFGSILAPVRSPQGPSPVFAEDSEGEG

Assay [2] has as its target T2, Biotinylated HsRAD9 pS387 peptide I-4 (human).
T2 sequence (peptide, phosphoserine at 387; biotin (position not stated)): T1 sequence (peptide, phosphoserine at 387; biotin (position not stated)) with F37I

Assay [3] has as its target T3, Biotinylated HsRAD9 pS387 peptide K-1 (human).
T3 sequence (peptide, phosphoserine at 387; biotin (position not stated)): T1 sequence (peptide, phosphoserine at 387; biotin (position not stated)) with F37L, D40K

Assay [4] concerns the target T4, Biotinylated HsRAD9 pS387 peptide L-1 (human).
T4 sequence (peptide, phosphoserine at 387; biotin (position not stated)): T1 sequence (peptide, phosphoserine at 387; biotin (position not stated)) with F37L, D40L

The target of assay [5] is T5, Biotinylated HsRAD9 pS387 peptide Q-5 (human).
T5 sequence (peptide, phosphoserine at 387; biotin (position not stated)): T1 sequence (peptide, phosphoserine at 387; biotin (position not stated)) with V36Q, F37L

For assay [6], the target named is T6, Biotinylated HsRAD9 pS387 peptide S-1 (human).
T6 sequence (peptide, phosphoserine at 387; biotin (position not stated)): T1 sequence (peptide, phosphoserine at 387; biotin (position not stated)) with F37L, D40S

The target in assay [7] is T7, Biotinylated HsRAD9 pS387 peptide S-5 (human).
T7 sequence (peptide, phosphoserine at 387; biotin (position not stated)): T1 sequence (peptide, phosphoserine at 387; biotin (position not stated)) with V36S, F37L

The target in assay [8] is T8, Biotinylated HsRAD9 pS387 peptide V-3 (human).
T8 sequence (peptide, phosphoserine at 387; biotin (position not stated)): T1 sequence (peptide, phosphoserine at 387; biotin (position not stated)) with F37L, A38V

In assay [9] the target is T9, Biotinylated HsRAD9 peptide pS387 (C-terminal 45 residues, 347-391) (human).
T9 sequence (peptide, phosphoserine at 387; biotin (position not stated)): T1 sequence (peptide, phosphoserine at 387; biotin (position not stated)) with F37L

On to “N-Myc6-TEV2-hTOPBP1-1-360 (from UniProt Q92547 1-360) (domain or fragment)”, for which the binding result in [1] is recorded as “binds”; in [2] it was “binds”; in assay [3], “no binding”; in assay [4], “no binding”; in [5], “binds”; in [6] it was “binds”. Besides, the binding entry in assay [7], in [8] and in [9] was “binds” in each case.
